Data: PubChem BioAssay AID1458 (National Center for Advancing Translational Sciences (NCATS), 2008)
Out of some 210,000 compounds screened, about 5,900 (2.8%) were called active. Inconclusive results, whose numbers are uncertain, are shown with a selection of clear calls. Calls follow the shape of the dose curve; as a rule, active = well fitted activation curve with a large enough effect; inconclusive = small, poorly fitted or top-dose-only effect; inactive = no such curve, though single readings can be large or run the other way. Where the call is inconclusive, the potency comes from a doubtful curve fit.

Test: qHTS Assay for Enhancers of SMN2 Splice Variant Expression; also: nearly all actives have a fitted effect of over 55% in size; as to activity change, positive = activation: % of control where 0% means no effect
Details: HEK293 SMN2-luciferase splicing reporter, luminescence, 30-36 h; activity change, positive = activation: at 46.1 µM (top of the series)
Summary of the method: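 HEK293 cells carry an SMN2 […]–luciferase reporter in which exon 7 inclusion puts luciferase in frame. Cells were plated 10-12 h before compound addition, then incubated 30-36 h at 37C. ONE-Glo luminescence was read; sodium butyrate at 4.5 mM final served as control.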
Potency is read from the fitted curve at half-maximal effect; tags tell the direction and shape of the fitted curve.

Structure (SMILES)	Potency	activity change, positive = activation
COc1ccc(-c2cnc(-c3cccnc3)o2)cc1	active: 11.2 µM	
O=c1[nH]c2ccccc2c(=O)n1Cc1ccccc1	inconclusive: 1.12 µM [activator, full curve, poor fit]	
COc1ccc(C(=O)N/N=C(/C)c2cccc(NC(=O)C(F)(F)F)c2)cc1	active: 10 µM	
CCOc1ccc(-c2nc(S(=O)(=O)c3ccccc3)c(NCc3cccnc3)o2)cc1	inconclusive: 15.8 µM [activator, single point]	
CC(=O)c1cccc(NC(=S)NC(=O)c2ccccc2)c1	inconclusive: 20 µM [activator, partial curve, poor fit]	
Cc1ccc(C(=O)N/C(=C\c2ccc(-c3cc(Cl)ccc3Cl)o2)C(=O)NCc2cccnc2)cc1	inactive	
CSc1nc2ccc3nc(NC(=O)c4ccccc4)sc3c2s1	inconclusive: 15.8 µM [activator, single point]	
CCn1nnnc1SCC(=O)Nc1nc(-c2cccs2)cs1	inactive	
CC(C)OC(=O)CC(=O)CSc1nc2c(cc1C#N)CCCCC2	inconclusive: 22.4 µM [activator, single point]	
COc1ccc(C(=O)/C(=C/N(C)C)S(=O)(=O)c2ccccc2)cc1	inconclusive: 5.62 µM [activator, partial curve, poor fit]	
Clc1nssc1=Nc1ccccc1	inactive	
CC1CCC/C(=C\Nc2ccc3c(c2)OCO3)C1=O (configuration not stated)	inconclusive: 15.8 µM [activator, single point]	
Cc1cccn2cc(-c3cccc(NC(=O)C(C)C)c3)nc12	inconclusive: 22.4 µM [activator, single point]	
CCc1nnc(NC(=O)CSc2ccc(-c3nc4ccccc4[nH]3)cn2)s1	inconclusive: 35.5 µM [activator, single point]	
COc1ccc(-c2nnn(CC(=O)N(Cc3cccs3)C(C)C(=O)NCCC(C)C)n2)cc1OC (configuration not stated)	inconclusive: 0.199 µM [activator, full curve, poor fit]	
O=C(Nc1ccc2nccnc2c1)c1ccco1	inconclusive: 14.1 µM [activator, single point]	
COc1cc(C(=O)N2CCN(c3ccc(C)cc3C)CC2)cc(OC)c1OC	inconclusive: 5.62 µM [activator, single point]	
COc1ccc2c(c1)c(=O)c(S(=O)(=O)c1ccc(F)cc1)cn2Cc1ccccc1Cl	inactive	
CC(C)(C)c1n[nH]c(=S)n(/N=C/c2cccs2)c1=O		inconclusive: 99.7% [activator]
O=C(c1ccc2c(c1)OCO2)c1cn(Cc2ccc(Cl)cc2)c2ccc(F)cc2c1=O	inconclusive: 3.98 µM [activator, single point]	
O=C(Cc1noc2ccccc12)Nc1ccccn1	active: 10 µM	
Cc1ccc(C)c(OCC(=O)N/N=C/c2c(C)nn(-c3ccccc3)c2Cl)c1	inactive	
CCCOc1ccccc1N1C(=O)CC(N2CCOCC2)C1=O (configuration not stated)	inconclusive: 0.158 µM [activator, full curve, poor fit]	
COc1cc2c(cc1NC(=O)COC(=O)C(CCSC)NC(=O)c1ccccc1Cl)oc1ccccc12 (configuration not stated)	inconclusive: 14.1 µM [activator, single point]	

Structure (SMILES)	Potency	activity change, positive = activation
CCn1nc(C)c(CNC(=O)Nc2ccc3c(c2)OCO3)c1C	inconclusive: 20 µM [activator, partial curve, poor fit]	
Nc1nnc(COc2ccc(Br)cc2Br)s1	inconclusive: 17.8 µM [activator, single point]	
CCOC(=O)c1nnn(CC(=O)N2N=C(c3cccc4ccccc34)CC2c2ccccc2)c1C(=O)OCC (configuration not stated)	inactive	
O=C(Nc1ccc2nsnc2c1)c1ccc2c(c1)OCO2	active: 5.62 µM	
COc1ccc(NC(=O)N2CCC(Cc3ccccc3)CC2)cc1	inconclusive: 5.62 µM [activator, single point]	
Cc1cc(C)n(CCc2nc3c4ccccc4nc(N4CCN(c5cccc(C)c5C)CC4)n3n2)n1	inactive	
CC(=O)Nc1ccc(C(=O)N/N=C/c2ccncc2)cc1	inactive	
Cc1[nH]c2ccc(Br)cc2c1CCNC(=O)c1cc2ccccc2oc1=O	inconclusive: 15.8 µM [activator, single point]	
COc1cc2nc(NC(=O)c3ccccc3)[nH]c(=O)c2cc1OC	inconclusive: 25.1 µM [activator, partial curve, poor fit]	
CCOc1ccc(-c2cc(C(=O)O)c3ccccc3n2)cc1	active: 11.2 µM	
CCOC(=O)C1C2C=CC3(CN(Cc4cccs4)C(=O)C13)O2 (configuration not stated)	inconclusive: 1.41 µM [activator, partial curve, poor fit]	
Cc1cc(C)cc(Oc2ccccc2/C=C\C(=O)O)c1	inconclusive: 0.562 µM [activator, single point]	
O=C(CNC(=O)Cc1ccccc1)NCC(=O)OCC(=O)c1cccc2ccccc12	inconclusive: 4.47 µM [activator, full curve, poor fit]	
Cc1cc(C(=O)N/N=C/c2c[nH]c3ccccc23)cs1	inconclusive: 31.6 µM [activator, single point]	
Clc1ccccc1-c1nc(-c2ccccc2)n[nH]1	inconclusive: 11.2 µM [activator, partial curve, poor fit]	
CC(=O)Nc1nnc(-c2ccc3c(c2)CCCC3)o1	inconclusive: 11.2 µM [activator, single point]	
CSc1nc(O)c(/C=C2\C=Nc3ccccc32)[nH]1	inconclusive: 14.1 µM [activator, partial curve, poor fit]	
COc1ccc(C(=S)N2CCCC2)cc1	inconclusive: 0.0708 µM [activator, full curve]	
O=C1/C(=C\c2ccc([N+](=O)[O-])cc2)CCc2ccccc21	inconclusive: 11.2 µM [activator, partial curve, poor fit]	
CCN(CC)c1ccc(N=Nc2nn(C)c(C)c2[N+](=O)[O-])cc1	active: 14.1 µM	
O=C(COc1ccccc1)c1cn(CC(=O)N2CCOCC2)c2ccccc12	inconclusive: 4.47 µM [activator, full curve, poor fit]	
O=C1C=CCCC1	inactive	
Cc1nc(-c2ccccc2)sc1C(=O)O	inconclusive: 31.6 µM [activator, single point]	
COc1ccc(Cn2c(C3CC3)nc3ccc(NC(=O)c4ccco4)cc3c2=O)cc1	inconclusive: 15.8 µM [activator, single point]	

Structure (SMILES)	Potency	activity change, positive = activation
COc1cccc([C@@H]2Oc3ccc(Br)cc3C(=O)[C@H]2OC(=O)NCCc2ccc(OC)c(OC)c2)c1	inconclusive: 22.4 µM [activator, single point]	
COc1ccc(C(=O)c2c[nH]c(C(=O)NCCCn3ccnc3)c2)cc1	inactive	
CC(=O)c1cccc(N=Nc2c(-c3ccccc3)[nH]n(-c3ccccc3)c2=O)c1	inactive	
Cc1ccc(NC(=O)Cn2c(=O)n(Cc3ccc(F)cc3)c(=O)c3cccnc32)cc1C	inactive	
O=C(O)CC1=C(Nc2ccccc2)C(=O)N(c2ccccc2)C1c1ccc(F)cc1 (configuration not stated)	inconclusive: 0.794 µM [activator, full curve, poor fit]	
CC(C)(C)c1ccc(C(=O)N2CCC(C(=O)NCc3ccco3)CC2)cc1	active: 2.51 µM	
c1ccc(OCc2nnc(-c3ccccc3)o2)cc1	active: 12.6 µM	
Cc1sc2ncnc(N3CCN(C(=O)c4ccco4)CC3)c2c1C	inactive	
CCOC(=O)c1cc(-c2ccco2)nc2c1c(C)nn2-c1ccccc1	inactive	
Cc1nnc(NC(=O)c2ccc(Br)cc2)s1	inconclusive: 25.1 µM [activator, single point]	
COc1ccccc1CNC(=O)CCC(=O)Nc1nnc(C)s1	inconclusive: 15.8 µM [activator, single point]	
CC1(C)Cc2c(sc(NC(=O)c3ccco3)c2C#N)CO1	inconclusive: 15.8 µM [activator, single point]	
CCOC(=O)CSc1nc2ccccc2c(=O)n1CC	inconclusive: 25.1 µM [activator, partial curve]	
CCc1ccc(/C=N/NC(=O)c2cc(C)on2)s1	inconclusive: 7.94 µM [activator, partial curve]	
CC(C)c1ccccc1NC(=O)C(Cc1c[nH]c2ccccc12)NC(=O)OC(C)(C)C (configuration not stated)	inactive	
CC(=O)c1ccc(Nc2cnn(C34CC5CC(CC(CC(=O)O)(C5)C3)C4)c(=O)c2Cl)cc1	inactive	
COc1ccc(/C=C/C(=O)c2ccc[nH]2)cc1OC	inconclusive: 35.5 µM [activator, single point]	
Cc1ccc(CC(=O)N/N=C/c2ccc3c(c2)OCO3)cc1	inconclusive: 12.6 µM [activator, partial curve]	
COc1ccc(-c2nnc(SC(C)C(=O)O)o2)cc1 (configuration not stated)	inactive	
Cc1[nH]c2ccccc2c1C1(O)C(=O)N(Cc2ccccc2)c2ccc(Cl)cc21 (configuration not stated)	inconclusive: 0.0282 µM [activator, full curve, poor fit]	
CCNC(=O)NC(=O)C(C)Oc1ccc(Br)cc1Br (configuration not stated)	inconclusive: 22.4 µM [activator, single point]	
Cc1noc(C)c1COC(=O)c1cccnc1SCC(=O)Nc1ccc2c(c1)OCO2	inconclusive: 11.2 µM [activator, single point]	
CCOc1ccc(C(=O)Oc2c(Sc3ccccc3)c(C)nn2C(C)(C)C)cc1OCC	inactive	
CC(C)c1ccc(Nc2nnc(SCC(=O)Nc3ncc(S(=O)(=O)c4ccc([N+](=O)[O-])cc4)s3)s2)cc1	active: 22.4 µM	
